{"source": "the supplement of paper PMC8728848", "binders": {"B1": {"name": "Als3-N (Candida albicans) (protein)", "chain": "KTITGVFNSFNSLTWSNAATYNYKGPGTPTWNAVLGWSLDGTSASPGDTFTLNMPCVFKFTTSQTSVDLTAHGVKYATCQFQAGEEFMTFSTLTCTVSNTLTPSIKALGTVTLPLAFNVGGTGSSVDLEDSKCFTAGTNTVTFNDGGKKISINVDFERSNVDPKGYLTDSRVIPSLNKVSTLFVAPQCANGYTSGTMGFANTYGDVQIDCSNIHVGITKGLNDWNYPVSSESFSYTKTCSSNGIFITYKNVPAGYRPFVDAYISATDVNSYTLSYANEYTCAGGYWQRAPFTLRWTGYRNSDAGSNGIVIVATTRTVTDSTTAVTTLPFDPNRDKTKTIEILKPIPTTTITTSYVGVTTSYLTKTAPIGETATVIVDIPYHTTTTVTSKWTGTITSTTTHTNPTDSIDTVIVQVP"}}, "assay_in_all_cases": "glycan array binding signal (z-score within array); higher = stronger binding", "conditions_in_all_cases": "glycan notation: IUPAC condensed, linker removed", "key": {"[1]": {"target": "Neu5Gc(a2-8)Neu5Gc(a2-3)Gal(b1-4)GlcNAc(b1-3)Gal(b1-4)GlcNAc", "summary_of_the_method": "(§1)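 Glycan array data were curated from 3228 arrays in the Consortium for Functional Glycomics database and kept only where the protein sequence was available. Glycan names were converted to IUPAC-condensed notation, and columns mapping to the same glycan were averaged. The binding signal is a within-array Z-score, averaged across arrays of the same protein sequence at different concentrations or buffers and across linkers. Negative Z-scores can be read as non-binding.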"}, "[2]": {"target": "Neu5Gc(a2-8)Neu5Gc(a2-6)Gal(b1-4)GlcNAc", "summary_of_the_method": "as §1"}, "[3]": {"target": "Neu5Gc(b2-6)Gal(b1-4)GlcNAc", "summary_of_the_method": "as §1"}}, "note": "The list shows a part of the results."}
{"binder": "B1", "values": [{"measurement": "glycan array binding signal (z-score)", "setting": "[1]", "value": -0.24}, {"measurement": "glycan array binding signal (z-score)", "setting": "[2]", "value": -0.264}, {"measurement": "glycan array binding signal (z-score)", "setting": "[3]", "value": -0.039}]}
